Reference: the supplement of paper PMC4604168 (melanoma cell lines)
Some of the results follow. Repeats are few or missing, and single values can be far off.
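Note: cells treated in 1,536-well plates, then fixed and DAPI-stained, with nuclei counted from automated high-throughput microscope images.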

Each compound was assayed on COLO800 (assay: cell count relative to DMSO control; melanoma cells; higher = more viable cells). Details: library dose: standard library concentration; 72 h.
`CS(=O)(=O)c1ccc(C(=O)Nc2ccc(Cl)c(-c3ccccn3)c2)c(Cl)c1` [vismodegib] + CNC(=O)c1cc(Oc2ccc(NC(=O)Nc3ccc(Cl)c(C(F)(F)F)c3)cc2)ccn1 [sorafenib] (first compound 5 µM, partner dose 2 µM) was tested, and the cell count was 118%.
Work on `C=C(c1ccc(C(=O)O)cc1)c1cc2c(cc1C)C(C)(C)CCC2(C)C` [Bexarotene] + Clc1ccc(Nc2nnc(Cc3ccncc3)c3ccccc23)cc1 [vatalanib] (first compound 10 µM, partner dose 10 µM) yielded a cell count of 57.6%.
`CN(c1ncccc1CNc1nc(Nc2ccc3c(c2)CC(=O)N3)ncc1C(F)(F)F)S(C)(=O)=O` + CO[C@H]1C[C@@H]2CC[C@@H](C)[C@@](O)(O2)C(=O)C(=O)N2CCCC[C@H]2C(=O)O[C@H]([C@H](C)C[C@@H]2CC[C@@H](OCCO)[C@H](OC)C2)CC(=O)[C@H](C)/C=C(\C)[C@@H](O)[C@@H](OC)C(=O)[C@H](C)C[C@H](C)/C=C/C=C/C=C/1C [everolimus] (first compound 0.4 µM, partner dose 0.1 µM) gave a cell count of 77.6%.
`NC1(c2ccc(-c3nc4ccn5c(=O)[nH]nc5c4cc3-c3ccccc3)cc2)CCC1` + Cc1cc(N2CCOCC2)cc2[nH]c(-c3c(NC[C@@H](O)c4cccc(Cl)c4)cc[nH]c3=O)nc12 [BMS536924] (first compound 2 µM, partner dose 1 µM) showed a cell count of 27.7%.
Compound `NC1(c2ccc(-c3nc4ccn5c(=O)[nH]nc5c4cc3-c3ccccc3)cc2)CCC1` + NCC(=O)Nc1ccc(-n2nc(C(F)(F)F)cc2-c2ccc3c(ccc4ccccc43)c2)cc1 [OSU03012] (first compound 2 µM, partner dose 5 µM) has a cell count of 64.1%.
In the case of `CCCS(=O)(=O)Nc1ccc(F)c(C(=O)c2c[nH]c3ncc(Cl)cc23)c1F` + Nc1ncn([C@H]2C[C@H](O)[C@@H](CO)O2)c(=O)n1 [decitabine] (first compound 0.4 µM, partner dose 0.5 µM), the cell count is reported as 60.4%.
Work on `C=C(c1ccc(C(=O)O)cc1)c1cc2c(cc1C)C(C)(C)CCC2(C)C` [Bexarotene] + Nc1cccc2c1CN(C1CCC(=O)NC1=O)C2=O [lenalidomide] (first compound 10 µM, partner dose 5 µM) yielded a cell count of 76.6%.
With `C=C(c1ccc(C(=O)O)cc1)c1cc2c(cc1C)C(C)(C)CCC2(C)C` [Bexarotene] + NC(=O)Nc1cc(-c2cccc(F)c2)sc1C(=O)N[C@H]1CCCNC1 [AZD7762] (first compound 10 µM, partner dose 0.1 µM) the cell count was 80.6%.
For `CCCS(=O)(=O)Nc1ccc(F)c(C(=O)c2c[nH]c3ncc(Cl)cc23)c1F` + O=C(CCCCCCC(=O)Nc1ccccc1)NO [vorinostat] (first compound 0.4 µM, partner dose 0.4 µM), the cell count was 70.4%.
`CN(c1ncccc1CNc1nc(Nc2ccc3c(c2)CC(=O)N3)ncc1C(F)(F)F)S(C)(=O)=O` + CCCS(=O)(=O)Nc1ccc(F)c(C(=O)c2c[nH]c3ncc(Cl)cc23)c1F [PLX4720] (first compound 0.4 µM, partner dose 0.4 µM) gave a cell count of 108%.
`NC1(c2ccc(-c3nc4ccn5c(=O)[nH]nc5c4cc3-c3ccccc3)cc2)CCC1` + COc1ccc(Cl)c(Nc2nc3ccccc3nc2NS(=O)(=O)c2cccc(NC(=O)C(C)(C)N)c2)c1 [XL147] (first compound 2 µM, partner dose 4 µM) gave a cell count of 58%.
`CS(=O)(=O)c1ccc(C(=O)Nc2ccc(Cl)c(-c3ccccn3)c2)c(Cl)c1` [vismodegib] + C=CCn1c(=O)c2cnc(Nc3ccc(N4CCN(C)CC4)cc3)nc2n1-c1cccc(C(C)(C)O)n1 [MK1775] (first compound 5 µM, partner dose 0.1 µM) showed a cell count of 45.9%.
In the case of `CS(=O)(=O)c1ccc(C(=O)Nc2ccc(Cl)c(-c3ccccn3)c2)c(Cl)c1` [vismodegib] + COc1ccc(Cl)c(Nc2nc3ccccc3nc2NS(=O)(=O)c2cccc(NC(=O)C(C)(C)N)c2)c1 [XL147] (first compound 5 µM, partner dose 4 µM), the cell count is reported as 159%.
`NC1(c2ccc(-c3nc4ccn5c(=O)[nH]nc5c4cc3-c3ccccc3)cc2)CCC1` + COc1cc(Nc2ncc(F)c(Nc3ccc4c(n3)NC(=O)C(C)(C)O4)n2)cc(OC)c1OC [Tamatinib] (first compound 2 µM, partner dose 2 µM) showed a cell count of 49.6%.
`C=C(c1ccc(C(=O)O)cc1)c1cc2c(cc1C)C(C)(C)CCC2(C)C` [Bexarotene] + NCC(=O)Nc1ccc(-n2nc(C(F)(F)F)cc2-c2ccc3c(ccc4ccccc43)c2)cc1 [OSU03012] (first compound 10 µM, partner dose 5 µM) was tested, and the cell count was 73.8%.
With `CS(=O)(=O)c1ccc(C(=O)Nc2ccc(Cl)c(-c3ccccn3)c2)c(Cl)c1` [vismodegib] + O=C(O)c1ccc(-c2c[nH]c3ncc(-c4ccccc4)cc23)cc1C1CCCC1 [GSK650394] (first compound 5 µM, partner dose 0.8 µM) the cell count was 116%.
Compound `NC1(c2ccc(-c3nc4ccn5c(=O)[nH]nc5c4cc3-c3ccccc3)cc2)CCC1` + CO[C@@H]1[C@H](N(C)C(=O)c2ccccc2)C[C@H]2O[C@]1(C)n1c3ccccc3c3c4c(c5c6ccccc6n2c5c31)C(=O)NC4 [Midostaurin] (first compound 2 µM, partner dose 0.4 µM) has a cell count of 38.2%.
`CN(c1ncccc1CNc1nc(Nc2ccc3c(c2)CC(=O)N3)ncc1C(F)(F)F)S(C)(=O)=O` + Nc1ncn([C@H]2C[C@H](O)[C@@H](CO)O2)c(=O)n1 [decitabine] (first compound 0.4 µM, partner dose 0.5 µM) showed a cell count of 83.4%.
Work on `CN(c1ncccc1CNc1nc(Nc2ccc3c(c2)CC(=O)N3)ncc1C(F)(F)F)S(C)(=O)=O` + Cn1c(Nc2ccc(C(F)(F)F)cc2)nc2cc(Oc3ccnc(-c4ncc(C(F)(F)F)[nH]4)c3)ccc21 [CHIR265] (first compound 0.4 µM, partner dose 0.4 µM) yielded a cell count of 53.9%.
With `NC1(c2ccc(-c3nc4ccn5c(=O)[nH]nc5c4cc3-c3ccccc3)cc2)CCC1` + O=C(Nc1cccc(Cl)c1)Nc1ncc(CCNc2ncnc3ccsc23)s1 [SNS314] (first compound 2 µM, partner dose 0.004 µM) the cell count was 41.8%.
`CCCS(=O)(=O)Nc1ccc(F)c(C(=O)c2c[nH]c3ncc(Cl)cc23)c1F` + Clc1ccc(Nc2nnc(Cc3ccncc3)c3ccccc23)cc1 [vatalanib] (first compound 0.4 µM, partner dose 10 µM) showed a cell count of 57.1%.
For `NC1(c2ccc(-c3nc4ccn5c(=O)[nH]nc5c4cc3-c3ccccc3)cc2)CCC1` + C[C@@H](Oc1cc(-c2cnn(C3CCNCC3)c2)cnc1N)c1c(Cl)ccc(F)c1Cl [Crizotinib] (first compound 2 µM, partner dose 1 µM), the cell count was 77.3%.
With `CN(c1ncccc1CNc1nc(Nc2ccc3c(c2)CC(=O)N3)ncc1C(F)(F)F)S(C)(=O)=O` + Cn1nnc2c(C(N)=O)ncn2c1=O [temozolomide] (first compound 0.4 µM, partner dose 10 µM) the cell count was 81.2%.
In the case of `NC1(c2ccc(-c3nc4ccn5c(=O)[nH]nc5c4cc3-c3ccccc3)cc2)CCC1` + Cn1c(=O)n(-c2ccc(C(C)(C)C#N)cc2)c2c3cc(-c4cnc5ccccc5c4)ccc3ncc21 [NVP-BEZ235] (first compound 2 µM, partner dose 0.02 µM), the cell count is reported as 49.9%.
`C=C(c1ccc(C(=O)O)cc1)c1cc2c(cc1C)C(C)(C)CCC2(C)C` [Bexarotene] + C#Cc1cccc(Nc2ncnc3cc(OCCOC)c(OCCOC)cc23)c1 [erlotinib] (first compound 10 µM, partner dose 4 µM) was tested, and the cell count was 109%.
For `CCCS(=O)(=O)Nc1ccc(F)c(C(=O)c2c[nH]c3ncc(Cl)cc23)c1F` + CC1(C)NC(=O)N(c2ccc([N+](=O)[O-])c(C(F)(F)F)c2)C1=O [nilutamide] (first compound 0.4 µM, partner dose 5 µM), the cell count was 82.8%.
Work on `NC1(c2ccc(-c3nc4ccn5c(=O)[nH]nc5c4cc3-c3ccccc3)cc2)CCC1` + C#Cc1cccc(Nc2ncnc3cc(OCCOC)c(OCCOC)cc23)c1 [erlotinib] (first compound 2 µM, partner dose 4 µM) yielded a cell count of 42.7%.
For `CCCS(=O)(=O)Nc1ccc(F)c(C(=O)c2c[nH]c3ncc(Cl)cc23)c1F` + OCCn1cc(-c2cnc3nnn(Cc4ccc5ncccc5c4)c3n2)cn1 [PF04217903] (first compound 0.4 µM, partner dose 5 µM), the cell count was 106%.
Work on `CS(=O)(=O)c1ccc(C(=O)Nc2ccc(Cl)c(-c3ccccn3)c2)c(Cl)c1` [vismodegib] + Nc1nc(F)nc2c1ncn2[C@@H]1O[C@H](CO)[C@@H](O)[C@@H]1O [fludarabine] (first compound 5 µM, partner dose 1 µM) yielded a cell count of 137%.
Work on `NC1(c2ccc(-c3nc4ccn5c(=O)[nH]nc5c4cc3-c3ccccc3)cc2)CCC1` + C[C@]1(c2nc3c(C(N)=O)cccc3[nH]2)CCCN1 [Veliparib] (first compound 2 µM, partner dose 7 µM) yielded a cell count of 61%.
`CS(=O)(=O)c1ccc(C(=O)Nc2ccc(Cl)c(-c3ccccn3)c2)c(Cl)c1` [vismodegib] + C#Cc1cccc(Nc2ncnc3cc(OCCOC)c(OCCOC)cc23)c1 [erlotinib] (first compound 5 µM, partner dose 4 µM) gave a cell count of 65.5%.
